# Whole data set: some 81,000 sequences, median “one-hybrid fitness for binding NBS DNA” near -0.1, cut for the highest 2% near 0.36. The list shows a part of the results.
# B1: Caulobacter ParB omega fusion; a variant is named by its letters at X, in order, B8GW30 (parent)
# chain: MESVVVGEPGMSEGRRGLGRGLSALLGEVDAAPAQAPGEQLGGSREAPIEILQRNPDQPRRTFREEDLEDLSNSIREKGVLQPILVRPSPDTAGEYQIVAGERAWRAAQRAGLKTVPIMVRELDDLAVLEIGIIENVQRADLNVLEEALSYKVLMEKFERTQENIAQTIGKSXSHVANXMRLLXLPDEVQSYLVSGELTAXHARAIAAAADPVALAKQIIEGGLSVRETEALARKAPNLSAGKSKGGRPPRVKDTDTQALESDLSSVLGLDVSIDHRGSTGTLTITYATLEQLDDLCNRLTRGI
# Variants of: B1
# Assay: one-hybrid fitness for binding NBS DNA (the Noc-binding site; scaled: cognate 1, non-cognate 0); higher = stronger binding
# Conditions: with NBS DNA site
# Method in brief: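 The reporter was HIS3, with the binding site 19 bp from the promoter, in E. coli USO used for bacterial one-hybrid selection of Caulobacter ParB libraries with four specificity codons randomised. Growth was on M9 lacking histidine, with 0.1 mM IPTG and 5 mM 3-AT, for 48 hours at 37°C. Illumina sequencing covered plasmids before and after selection; three replicate libraries were pooled and variants with under 10 reads dropped. A fitness score is the log change in variant-to-wild-type read ratio, rescaled to the cognate and non-cognate references.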
row,Variant,one-hybrid fitness for binding NBS DNA
1,MNDA,≤ 0.2
2,GVCR,0.275
3,WEDM,≤ 0.2
4,KHMV,≤ 0.2
5,TKIG,≤ 0.2
6,LGWQ,≤ 0.2
7,LCNQ,≤ 0.2
8,EHWM,≤ 0.2
9,SQCR,≤ 0.2
10,LVQE,≤ 0.2
11,PYFM,≤ 0.2
12,PKPR,≤ 0.2
13,KPGS,≤ 0.2
14,EMKQ,≤ 0.2
15,DSNF,≤ 0.2
16,RSGM,≤ 0.2
17,ACGL,≤ 0.2
18,DQPS,≤ 0.2
19,AEPS,≤ 0.2
20,NYTL,≤ 0.2
21,CKQF,≤ 0.2
22,PTWY,≤ 0.2
23,YQPW,≤ 0.2
24,TKDI,≤ 0.2

row,Variant,one-hybrid fitness for binding NBS DNA
1,MAES,≤ 0.2
2,RYNA,0.248
3,IRKS,0.37
4,SEMP,≤ 0.2
5,AITW,≤ 0.2
6,KHHT,≤ 0.2
7,RSEI,≤ 0.2
8,PLIN,≤ 0.2
9,RHAN,≤ 0.2
10,QIHM,≤ 0.2
11,VPED,≤ 0.2
12,QPIL,≤ 0.2
13,KPAG,≤ 0.2
14,WHSV,≤ 0.2
15,ERQS,≤ 0.2
16,KQQG,≤ 0.2
17,HAPK,≤ 0.2
18,RQYC,≤ 0.2
19,QRGV,0.452
20,GSPC,≤ 0.2
21,VGCR,≤ 0.2
22,NCTH,≤ 0.2
23,TLYK,≤ 0.2
24,AAQD,≤ 0.2

row,Variant,one-hybrid fitness for binding NBS DNA
1,IRIS,≤ 0.2
2,HPAM,≤ 0.2
3,IMGR,≤ 0.2
4,YSLV,≤ 0.2
5,ANKN,≤ 0.2
6,KIQL,≤ 0.2
7,EEIR,≤ 0.2
8,GNLK,≤ 0.2
9,SRAW,≤ 0.2
10,KTQV,≤ 0.2
11,CMIN,≤ 0.2
12,RGPQ,≤ 0.2
13,TKNM,≤ 0.2
14,RGVD,≤ 0.2
15,EADT,≤ 0.2
16,RCPP,≤ 0.2
17,SQVA,≤ 0.2
18,HACR,≤ 0.2
19,SNDY,≤ 0.2
20,PRYA,≤ 0.2
21,RFTP,≤ 0.2
22,GTSA,≤ 0.2
23,IART,≤ 0.2
24,DTTV,≤ 0.2

row,Variant,one-hybrid fitness for binding NBS DNA
1,LKMA,≤ 0.2
2,MDPC,≤ 0.2
3,QVRP,≤ 0.2
4,LMYC,≤ 0.2
5,GPLC,≤ 0.2
6,FHSV,≤ 0.2
7,ILNS,≤ 0.2
8,NVET,≤ 0.2
9,PAIS,≤ 0.2
10,RNQC,≤ 0.2
11,QFNS,≤ 0.2
12,STEN,≤ 0.2
13,GEPK,≤ 0.2
14,VALI,≤ 0.2
15,PCRI,≤ 0.2
16,WPKG,≤ 0.2
17,VKSF,≤ 0.2
18,DPSG,≤ 0.2
19,TPLW,≤ 0.2
20,RMGW,≤ 0.2
21,LWKM,≤ 0.2
22,AWAC,≤ 0.2
23,PSIF,≤ 0.2
24,TETC,≤ 0.2

row,Variant,one-hybrid fitness for binding NBS DNA
1,TLRN,≤ 0.2
2,NPSC,≤ 0.2
3,SARI,≤ 0.2
4,LTDP,≤ 0.2
5,PAHL,≤ 0.2
6,CDVR,≤ 0.2
7,MKWG,≤ 0.2
8,GPGR,≤ 0.2
9,NLQA,≤ 0.2
10,FRGR,≤ 0.2
11,NRMD,≤ 0.2
12,CMKT,≤ 0.2
13,TNRV,≤ 0.2
14,YGSG,≤ 0.2
15,FLQG,≤ 0.2
16,TIPV,≤ 0.2
17,GACT,≤ 0.2
18,MSYN,≤ 0.2
19,RCKH,0.403
20,QCRI,0.407
21,SRCR,≤ 0.2
22,KDIR,≤ 0.2
23,VTPL,≤ 0.2
24,RNSH,≤ 0.2

row,Variant,one-hybrid fitness for binding NBS DNA
1,RYGG,≤ 0.2
2,QMVL,≤ 0.2
3,FLLG,≤ 0.2
4,WVKG,≤ 0.2
5,QNVK,≤ 0.2
6,EYAR,≤ 0.2
7,LQQY,≤ 0.2
8,SKIR,≤ 0.2
9,FLNR,≤ 0.2
10,VHSI,≤ 0.2
11,KDSD,≤ 0.2
12,SRSN,≤ 0.2
13,GCQM,≤ 0.2
14,MQSG,≤ 0.2
15,NFSG,≤ 0.2
16,SHLM,≤ 0.2
17,GKSD,≤ 0.2
18,ISYL,≤ 0.2
19,AHDA,≤ 0.2
20,YHIP,≤ 0.2
21,KVTW,≤ 0.2
22,AQWS,≤ 0.2
23,IGFS,≤ 0.2
24,LTEQ,≤ 0.2

row,Variant,one-hybrid fitness for binding NBS DNA
1,ENTM,≤ 0.2
2,CDVF,≤ 0.2
3,QKVN,≤ 0.2
4,SLVW,≤ 0.2
5,RSHK,≤ 0.2
6,LCSW,≤ 0.2
7,DHNR,≤ 0.2
8,KAKK,≤ 0.2
9,PLCL,≤ 0.2
10,GQHC,≤ 0.2
11,LPAG,≤ 0.2
12,TVII,≤ 0.2
13,KCYL,≤ 0.2
14,QYFC,≤ 0.2
15,HKCG,≤ 0.2
16,YMDT,≤ 0.2
17,YHLS,≤ 0.2
18,NSWG,≤ 0.2
19,CCFS,≤ 0.2
20,TSQW,≤ 0.2
21,ICPC,≤ 0.2
22,RTCM,≤ 0.2
23,EYGR,≤ 0.2
24,HTPY,≤ 0.2

row,Variant,one-hybrid fitness for binding NBS DNA
1,IGAR,≤ 0.2
2,MTYW,≤ 0.2
3,FEAR,≤ 0.2
4,VTTC,≤ 0.2
5,SLVL,≤ 0.2
6,NYKL,≤ 0.2
7,RCCH,≤ 0.2
8,QFKW,≤ 0.2
9,ILMT,≤ 0.2
10,KTTA,≤ 0.2
11,GHPT,≤ 0.2
12,HNCG,≤ 0.2
13,KNAC,≤ 0.2
14,LMRF,≤ 0.2
15,RFYA,≤ 0.2
16,HHLL,≤ 0.2
17,TDDR,≤ 0.2
18,QESY,≤ 0.2
19,HRPK,≤ 0.2
20,QSCP,≤ 0.2
21,AFQW,≤ 0.2
22,VRHK,≤ 0.2
23,SSEH,≤ 0.2
24,IFTS,≤ 0.2

row,Variant,one-hybrid fitness for binding NBS DNA
1,RRWI,0.2
2,NYSE,≤ 0.2
3,HPVM,≤ 0.2
4,NLCA,≤ 0.2
5,QMRE,0.277
6,RAFG,≤ 0.2
7,TCWL,≤ 0.2
8,AAEY,≤ 0.2
9,LTKA,≤ 0.2
10,VWTY,≤ 0.2
11,IMMS,≤ 0.2
12,VSAK,≤ 0.2
13,QKCM,≤ 0.2
14,CGRC,≤ 0.2
15,CGHR,≤ 0.2
16,HVGC,≤ 0.2
17,ASPL,≤ 0.2
18,EKYF,≤ 0.2
19,SCGD,≤ 0.2
20,YHQW,≤ 0.2
21,SRLG,≤ 0.2
22,FMVR,≤ 0.2
23,GDSC,≤ 0.2
24,MHPS,≤ 0.2

row,Variant,one-hybrid fitness for binding NBS DNA
1,LRWK,≤ 0.2
2,KCTT,≤ 0.2
3,TNVW,≤ 0.2
4,ITEL,≤ 0.2
5,ILMM,≤ 0.2
6,QIGS,0.295
7,FAMR,≤ 0.2
8,DKGS,≤ 0.2
9,AEHP,≤ 0.2
10,HTTK,≤ 0.2
11,TARE,≤ 0.2
12,VEKP,≤ 0.2
13,RLME,≤ 0.2
14,RQIN,≤ 0.2
15,AFSR,≤ 0.2
16,KTPT,≤ 0.2
17,RPKC,≤ 0.2
18,GYAT,≤ 0.2
19,WISW,≤ 0.2
20,DSTA,≤ 0.2
21,TDFS,≤ 0.2
22,HSQP,≤ 0.2
23,RKCY,≤ 0.2
24,VQFS,≤ 0.2

row,Variant,one-hybrid fitness for binding NBS DNA
1,PRIV,≤ 0.2
2,LPPH,≤ 0.2
3,IEDG,≤ 0.2
4,PLHM,≤ 0.2
5,SFLT,≤ 0.2
6,SWQG,≤ 0.2
7,NLMC,≤ 0.2
8,RYTM,≤ 0.2
9,ICYS,≤ 0.2
10,VAES,≤ 0.2
11,PLTW,≤ 0.2
12,QQMF,≤ 0.2
13,EATS,≤ 0.2
14,WSRP,≤ 0.2
15,AIVL,≤ 0.2
16,PLKI,≤ 0.2
17,FETS,≤ 0.2
18,EFKG,≤ 0.2
19,IQPG,≤ 0.2
20,ELHG,≤ 0.2
21,YFAD,≤ 0.2
22,LRYP,≤ 0.2
23,HSAV,≤ 0.2
24,EKHS,≤ 0.2

row,Variant,one-hybrid fitness for binding NBS DNA
1,QPQS,≤ 0.2
2,GKAC,≤ 0.2
3,RYFE,≤ 0.2
4,MHCG,≤ 0.2
5,QTTD,≤ 0.2
6,GNAL,≤ 0.2
7,RQDI,≤ 0.2
8,NLAC,≤ 0.2
9,VPWS,≤ 0.2
10,PDNV,≤ 0.2
11,DASP,≤ 0.2
12,LKDA,≤ 0.2
13,CMER,≤ 0.2
14,QSIG,≤ 0.2
15,MDCR,0.302
16,DMKL,≤ 0.2
17,SFER,≤ 0.2
18,QPKY,≤ 0.2
19,ANCS,≤ 0.2
20,RTEV,≤ 0.2
21,TLKV,≤ 0.2
22,VTPN,≤ 0.2
23,QKET,0.391
24,AATF,≤ 0.2

row,Variant,one-hybrid fitness for binding NBS DNA
1,TRFL,≤ 0.2
2,QHVW,≤ 0.2
3,HANC,≤ 0.2
4,VMKS,≤ 0.2
5,DGDS,≤ 0.2
6,YPTW,≤ 0.2
7,LLTS,≤ 0.2
8,HMLF,≤ 0.2
9,RWMG,≤ 0.2
10,SCMG,≤ 0.2
11,QTKK,0.596
12,SMKG,≤ 0.2
13,PKNC,≤ 0.2
14,CTMR,≤ 0.2
15,NIVE,≤ 0.2
16,LIRT,≤ 0.2
17,PGLD,≤ 0.2
18,FQRS,≤ 0.2

# Source: a collection of fitness landscapes (doi:10.1016/j.celrep.2020.107928)
